# Source: the supplement of paper PMC8728848
# The other results are listed elsewhere or left out.
# B1: PA-IL (Pseudomonas aeruginosa) (protein)
# chain: AWKGEVLANNEAGQVTSIIYNPGDVITIVAAGWASYGPTQKWGPQGDREHPDQGLICHDAFCGALVMKIGNSGTIPVNTGLFRWVAPNNVQGAITLIYNDVPGTYGNNSGSFSVNIGKDQS
# Key:
# Experiment in all cases: glycan array binding signal (z-score within array); higher = stronger binding
# Conditions in all cases: glycan notation: IUPAC condensed, linker removed
# Gal(a1-2)Gal = target: Gal(a1-2)Gal
# How it was run: (§1)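 From the Consortium for Functional Glycomics database, 3228 arrays were curated, keeping only those whose protein sequence was available. Binding is given as a within-array Z-score averaged across arrays sharing a protein sequence and across linkers. Negative Z-scores can be read as non-binding.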
# Gal(a1-3)Gal = target: Gal(a1-3)Gal
# How it was run: as §1
# Gal(a1-3)Gal(b1-3)GlcNAc = target: Gal(a1-3)Gal(b1-3)GlcNAc
# How it was run: as §1
# Gal(a1-3)Gal(b1-4)Glc = target: Gal(a1-3)Gal(b1-4)Glc
# How it was run: as §1
# Gal(a1-3)Gal(b1-4)GlcNAc = target: Gal(a1-3)Gal(b1-4)GlcNAc
# How it was run: as §1
# [1] = target: Gal(a1-3)Gal(b1-4)[Fuc(a1-3)]GlcNAc
# How it was run: as §1
# Gal(a1-3)GalNAc = target: Gal(a1-3)GalNAc
# How it was run: as §1
# [2] = target: Gal(a1-3)[Gal(a1-4)]Gal(b1-4)GlcNAc
# How it was run: as §1
# Gal(a1-4)Gal(b1-4)Glc = target: Gal(a1-4)Gal(b1-4)Glc
# How it was run: as §1
# Gal(a1-4)Gal(b1-4)GlcNAc = target: Gal(a1-4)Gal(b1-4)GlcNAc
# How it was run: as §1
# Gal(a1-4)GlcNAc = target: Gal(a1-4)GlcNAc
# How it was run: as §1
# Gal(a1-6)Glc = target: Gal(a1-6)Glc
# How it was run: as §1
# Gal(b1-2)Gal = target: Gal(b1-2)Gal
# How it was run: as §1
# Gal(b1-3)Gal = target: Gal(b1-3)Gal
# How it was run: as §1
# Gal(b1-3)GalNAc = target: Gal(b1-3)GalNAc
# How it was run: as §1
# [3] = target: Gal(b1-3)GalNAc(b1-3)Gal(a1-4)Gal(b1-4)Glc
# How it was run: as §1
# [4] = target: Gal(b1-3)GalNAc(b1-4)Gal(b1-4)Glc
# How it was run: as §1
# [5] = target: Gal(b1-3)GalNAc(b1-4)[Neu5Ac(a2-3)]Gal(b1-4)Glc
# How it was run: as §1
# Gal(b1-3)GlcNAc = target: Gal(b1-3)GlcNAc
# How it was run: as §1
# [6] = target: Gal(b1-3)GlcNAc(b1-3)Gal(b1-4)Glc
# How it was run: as §1
# [7] = target: Gal(b1-3)GlcNAc(b1-3)Gal(b1-4)GlcNAc
# How it was run: as §1
# [8] = target: Gal(b1-3)[Fuc(a1-4)]GlcNAc
# How it was run: as §1
# [9] = target: Gal(b1-3)[Fuc(a1-4)]GlcNAc(b1-3)Gal(b1-4)GlcNAc
# How it was run: as §1
# [10] = target: Gal(b1-3)[Fuc(a1-4)]GlcNAc(b1-3)Gal(b1-4)[Fuc(a1-3)]GlcNAc
# How it was run: as §1
# [11] = target: Gal(b1-3)[GlcNAc(b1-6)]GalNAc
# How it was run: as §1
# [12] = target: Gal(b1-3)[Neu5Ac(a2-6)]GalNAc
# How it was run: as §1
# [13] = target: Gal(b1-3)[Neu5Ac(a2-6)]GlcNAc(b1-6)Gal(b1-4)Glc
# How it was run: as §1
# [14] = target: Gal(b1-3)[Neu5Ac(b2-6)]GalNAc
# How it was run: as §1
# [15] = target: Gal(b1-4)GalNAc(a1-3)[Fuc(a1-2)]Gal(b1-4)GlcNAc
# How it was run: as §1
# [16] = target: Gal(b1-4)GalNAc(b1-3)[Fuc(a1-2)]Gal(b1-4)GlcNAc
# How it was run: as §1
# Gal(b1-4)Glc = target: Gal(b1-4)Glc
# How it was run: as §1
# Gal(b1-4)Glc6S = target: Gal(b1-4)Glc6S
# How it was run: as §1
# Gal(b1-4)GlcNAc = target: Gal(b1-4)GlcNAc
# How it was run: as §1
# [17] = target: Gal(b1-4)GlcNAc(b1-2)Man(a1-3)[Gal(b1-4)GlcNAc(b1-2)Man(a1-6)]Man(b1-4)GlcNAc(b1-4)GlcNAc
# How it was run: as §1
# [18] = target: Gal(b1-4)GlcNAc(b1-3)Gal(b1-4)Glc
# How it was run: as §1
# [19] = target: Gal(b1-4)GlcNAc(b1-3)Gal(b1-4)GlcNAc
# How it was run: as §1
# [20] = target: Gal(b1-4)GlcNAc(b1-3)Gal(b1-4)GlcNAc(b1-3)Gal(b1-4)GlcNAc
# How it was run: as §1
# [21] = target: Gal(b1-4)GlcNAc(b1-3)Gal(b1-4)[Fuc(a1-3)]GlcNAc(b1-3)Gal(b1-4)[Fuc(a1-3)]GlcNAc
# How it was run: as §1
binder,measurement,setting,value
B1,glycan array binding signal (z-score),Gal(a1-2)Gal,4.77
same,glycan array binding signal (z-score),Gal(a1-3)Gal,2.81
same,glycan array binding signal (z-score),Gal(a1-3)Gal(b1-3)GlcNAc,2.7
same,glycan array binding signal (z-score),Gal(a1-3)Gal(b1-4)Glc,3.73
same,glycan array binding signal (z-score),Gal(a1-3)Gal(b1-4)GlcNAc,3.65
same,glycan array binding signal (z-score),[1],4.11
same,glycan array binding signal (z-score),Gal(a1-3)GalNAc,3.41
same,glycan array binding signal (z-score),[2],3.92
same,glycan array binding signal (z-score),Gal(a1-4)Gal(b1-4)Glc,2.15
same,glycan array binding signal (z-score),Gal(a1-4)Gal(b1-4)GlcNAc,3.6
same,glycan array binding signal (z-score),Gal(a1-4)GlcNAc,3.15
same,glycan array binding signal (z-score),Gal(a1-6)Glc,1.53
same,glycan array binding signal (z-score),Gal(b1-2)Gal,1.65
same,glycan array binding signal (z-score),Gal(b1-3)Gal,-0.271
same,glycan array binding signal (z-score),Gal(b1-3)GalNAc,-0.363
same,glycan array binding signal (z-score),[3],-0.365
same,glycan array binding signal (z-score),[4],-0.363
same,glycan array binding signal (z-score),[5],-0.36
same,glycan array binding signal (z-score),Gal(b1-3)GlcNAc,0.348
same,glycan array binding signal (z-score),[6],-0.209
same,glycan array binding signal (z-score),[7],-0.258
same,glycan array binding signal (z-score),[8],-0.363
same,glycan array binding signal (z-score),[9],-0.12
same,glycan array binding signal (z-score),[10],-0.364
same,glycan array binding signal (z-score),[11],-0.365
same,glycan array binding signal (z-score),[12],-0.365
same,glycan array binding signal (z-score),[13],-0.365
same,glycan array binding signal (z-score),[14],-0.365
same,glycan array binding signal (z-score),[15],-0.364
same,glycan array binding signal (z-score),[16],-0.365
same,glycan array binding signal (z-score),Gal(b1-4)Glc,-0.364
same,glycan array binding signal (z-score),Gal(b1-4)Glc6S,0.529
same,glycan array binding signal (z-score),Gal(b1-4)GlcNAc,-0.059
same,glycan array binding signal (z-score),[17],-0.291
same,glycan array binding signal (z-score),[18],-0.205
same,glycan array binding signal (z-score),[19],0.15
same,glycan array binding signal (z-score),[20],-0.284
same,glycan array binding signal (z-score),[21],-0.355
